# Results: PubChem BioAssay AID1159614 (National Center for Advancing Translational Sciences (NCATS), 2016)
# Screen size: about 45,000 compounds; about 65 (0.1%) were called active. Inconclusive means that the source gave no clear call. Such entries were picked first, then a sample of the others. Calls come from the whole dose curve; as a rule, active = well fitted activation curve with a large enough effect; inconclusive = small, poorly fitted or top-dose-only effect; inactive = no such curve, though single readings can be large or run the other way. Potencies beside an inconclusive call are fits to weak or partial responses and may not hold up.
# Target: Galactocerebrosidase (Homo sapiens) (UniProt P54803)
# Sequence of UniProt P54803 (P54803 whole entry, looked up): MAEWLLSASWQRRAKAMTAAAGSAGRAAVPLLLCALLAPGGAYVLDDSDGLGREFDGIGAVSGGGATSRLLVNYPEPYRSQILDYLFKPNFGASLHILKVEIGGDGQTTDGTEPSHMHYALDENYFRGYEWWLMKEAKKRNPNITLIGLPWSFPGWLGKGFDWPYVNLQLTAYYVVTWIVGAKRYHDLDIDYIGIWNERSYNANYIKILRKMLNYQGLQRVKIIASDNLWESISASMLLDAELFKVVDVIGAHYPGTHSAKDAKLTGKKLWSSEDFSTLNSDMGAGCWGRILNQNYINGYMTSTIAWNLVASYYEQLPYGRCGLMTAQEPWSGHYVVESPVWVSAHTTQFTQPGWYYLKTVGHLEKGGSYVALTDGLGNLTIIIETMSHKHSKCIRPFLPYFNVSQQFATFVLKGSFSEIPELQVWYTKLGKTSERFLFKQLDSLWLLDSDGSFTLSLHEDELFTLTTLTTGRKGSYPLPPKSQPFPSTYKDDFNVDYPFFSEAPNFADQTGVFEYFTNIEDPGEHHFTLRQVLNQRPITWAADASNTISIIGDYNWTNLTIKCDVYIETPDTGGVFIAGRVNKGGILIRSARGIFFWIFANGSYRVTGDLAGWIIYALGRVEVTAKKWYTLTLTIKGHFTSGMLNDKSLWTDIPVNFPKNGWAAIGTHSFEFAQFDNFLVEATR
# Assay: A Novel Cell-Based Assay to Identify Small Molecules for B -Galactocerebrosidase; note: nearly all actives have a fitted effect of over 65% in size; for activation: 0% is about no effect
# Settings: 145M-Twi-hGALC-G270D cells (Twitcher mouse brain line with human GALC G270D), HMU-beta-Gal fluorescence, 48 h; activation: at 57.5 µM (top of the series)
# Method in brief: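 Mutant human GALC (G270D), stably expressed in a Twitcher mouse brain cell line lacking endogenous GALC, is measured in live-treated cells via 6-hexadecanoylamino-4-methylumbelliferyl-β-galactoside hydrolysis (0.1 mM final, pH 5.2) with fluorescent detection.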
# Potency is the fitted concentration of half-maximal effect; tags give direction and shape of the fitted curve.
Compound,Potency,activation
Cc1cc(N2CCCCC2)nc2ccc(NC(=O)c3cccc(Cl)c3)cc12,"inconclusive: 39.8 µM [activator, single point]",–
CC1=C(c2ccc(C(C)C)cc2)S(=O)(=O)NC1=NCc1ccc(OC(C)C)cc1,"inconclusive: 5.01 µM [activator, single point]",–
CC(C(=O)NCc1cccc(Br)c1)n1ncn2cccc2c1=O (configuration not stated),–,inactive: -3.87%
CCOc1ccc(NC(=O)c2c(Nc3ccccc3C)sc(C(=O)c3ccc(Cl)cc3)c2N)cc1,–,inconclusive: 34% [activator]
COc1ccc(CNC(=O)CCC2N=C3c4ccccc4N=C(SCc4cccc(F)c4)N3C2=O)cc1 (configuration not stated),"inconclusive: 39.8 µM [activator, single point]",–
COc1cccc(/C=C/c2nc(C#N)c(N3CCCCCC3)o2)c1,"inconclusive: 39.8 µM [activator, single point]",–
Cc1ccc(CNC(=O)CN(C)S(=O)(=O)c2ccc3c(c2)c(=O)n(C)c(=O)n3C)cc1,"inconclusive: 0.178 µM [activator, full curve]",–
COc1cc(C2CC(=O)Nc3cc4c(cc32)OCO4)cc(OC)c1O (configuration not stated),"inconclusive: 0.178 µM [activator, full curve]",–
O=C(Cn1nc2c(cc1=O)CCCC2)NCc1ccc(Cl)cc1,–,inactive: -7.87%
CCC(=O)N1CCc2cc(Br)cc(S(=O)(=O)N3CCCC(C(=O)Nc4ccc(C)c(F)c4)C3)c21 (configuration not stated),"inconclusive: 0.178 µM [activator, partial curve, poor fit]",–
COc1cccc(/C=C/c2nc(C#N)c(N3CCN(C)CC3)o2)c1,"inconclusive: 31.6 µM [activator, single point]",–
Cc1ccc(NC(=O)c2oc3ccc(S(=O)(=O)N4CCCCC4)cc3c2C)c(C)c1,"inconclusive: 39.8 µM [activator, single point]",–
O=C(Nc1ccccc1C(=O)OCc1cc(=O)n2nc(C3CC3)sc2n1)c1ccc(Cl)cc1,"inconclusive: 39.8 µM [activator, single point]",–
COc1ccc(Cl)cc1NC(=O)CSc1nc(-c2cccs2)cc(C(F)(F)F)n1,"inconclusive: 3.98 µM [activator, full curve, poor fit]",–
CCOC(=O)c1c(NC(=O)c2ccc(S(=O)(=O)N3CCCC(C)C3)cc2)sc2c1CC(C)(C)NC2(C)C (configuration not stated),–,inactive: -34.1%
COCc1cc(C)nc2sc(C(=O)Nc3ccc(OC(F)(F)F)cc3)c(N)c12,"inconclusive: 25.1 µM [activator, single point]",–
COc1ccc2cc(-c3nc(Cl)c4c5c(sc4n3)CCCC5)c(=O)oc2c1,"inconclusive: 3.98 µM [activator, single point]",–
